In test [1] the test system is HIV-1 (HX10). The experiment in a line: microbe, parasite or virus in culture. Type of test: cell-based. Conditions: Human immunodeficiency virus 1; for inhibition at 2.5 µg/mL: 2.5 μg/ml; for inhibition at 5 µg/mL: 5 μg/ml.
In test [2] the target is recombinant HIV-1 reverse transcriptase (RT) (Human immunodeficiency virus type 1 group M subtype B, UniProt P04585). The experiment in a line: Recombinant HIV-1 reverse transcriptase assay (Screen RTA, Retro-Tech). It counts as biochemical. Conditions: 10 μg/ml, 2 h incubation, from FIG. 1.
Test [3] concerns the target HIV reverse transcriptase (Human immunodeficiency virus type 1 group M subtype B, UniProt P04585). Conditions: Liu et al., Planta Med. 65 (1999), 43-46; cited from earlier work.
For another test, the system named is HIV-2 strain (ROD). Nature of the test: Infection reporter assay in MAGI cells, HIV-2 strain. It counts as cell-based. Conditions: Human immunodeficiency virus 2, wild type strain HIV-2rod. A general note: Reporter assays use an easily measured gene product as a stand-in for the process of interest.
In test [4] the test system is HIV-1 (HX10). It counts as cell-based. Conditions: 1.25 μg/ml, 7 days, ca. 100 TCID50, from FIG. 2.
In the next test the test system is wild type HIV-1. Nature of the test: Virus-uptake (internalization) assay in MAGI cells, intracellular p24. Conditions: 10, 2.5 and 0.625 μg/ml. Type of test: cell-based.
Test [5] addresses HIV-1 gp120 binding to CD4 (Human immunodeficiency virus type 1 group M subtype B, UniProt P04578). Nature of the test: biochemical.
[6] abbreviates: MAGI cells, HIV-1 HX10, triplicates.

These results are taken from patent publication US20040161477A1, “Phyllanthus-derived compounds for the prevention and/or treatment of disease associated with a retrovirus” (priority 2000, published 2004).

In brackets after ≈: the same amount, converted by molar mass.

One may read the inhibition as the drop in the measured response relative to a control, in per cent. With `O=C(O[C@@H]1O[C@@H]2COC(=O)c3cc(O)c(O)c(O)c3-c3c(cc(O)c(O)c3O)C(=O)O[C@H]([C@H]1O)[C@@H]2O)c1cc(O)c(O)c(O)c1` [Corilagin, corilagin], in the test on HIV-1 (HX10) [1] (setting [6]), 2.5 µg/mL produced 38 ± 13% inhibition and the inhibition at 5 µg/mL came to 73 ± 9%. Further, the inhibition at 10 µg/mL in the test on HIV-1 (HX10) [1] (10 μg/ml, MAGI cells, HIV-1 HX10, triplicates) stood at 85 ± 7%. Also, the inhibition at 10 µg/mL in test [2] is above 35%. Also, the “inhibitory effect on HIV reverse transcriptase” value in test [3] is listed as “strong inhibitory effect”.

A word on the EC50: it is the concentration that produces a half-maximal response. A higher EC50 goes with lower potency in that assay. A word on the IC50: it is the concentration that gives 50% inhibition. A lower IC50 goes with inhibition by little substance. On to `O=C1O[C@H]2[C@@H]3OC(=O)c4cc(O)c(O)c(O)c4-c4c(cc(O)c(O)c4O)C(=O)OC[C@H]2O[C@@H](OC(=O)c2cc(O)c(O)c(O)c2)[C@@H]3OC(=O)c2cc(O)c(O)c3c2[C@@H]2C1=CC(=O)[C@](O)(O3)C2(O)O` [Geraniin, geraniin], for which, in the test on HIV-1 (HX10) [1] (1.25 μg/ml, MAGI cells, HIV-1 HX10, triplicates), the inhibition at 1.25 µg/mL amounted to 66 ± 8%. In the test on HIV-1 (HX10) [1] (setting [6]), the inhibition at 2.5 µg/mL was determined as 80 ± 4% and 5 µg/mL produced 93 ± 5% inhibition. Besides, the concentration for a half-maximal effect (EC50) in the test on HIV-1 (HX10) [1] (wild type strain HX10, MAGI cells) was 0.74 µg/mL (≈ 0.777 µM). Besides, it took 0.83 µg/mL (≈ 0.871 µM) to reach a half-maximal effect in the test with HIV-2 strain (ROD) (EC50). The inhibition at 10 µg/mL in test [2] was above 80%. The “inhibition of HIV-1 replication in MT4 cells” value with HIV-1 (HX10) [4] is given as “complete inhibition”. For the same compound, the “internalization of virus (intracellular HIV-1 p24)” value with wild type HIV-1 was “blocked by geraniin in a dose dependent manner”. The 50% inhibitory concentration (IC50) in test [5] is 0.504 µM. Moreover, the “inhibitory effect on HIV reverse transcriptase” value in test [3] is “strong inhibitory effect”.
